Read counts are not given, so values of variants with three or more changes are uncertain.
B1: LINE1-full (parent)
chain: UACGUAGGUGGUUUUCCCCUGAUAGUGCUAAGGGGGCCUGGAAGUUUGGACUGGGCAGAGCUCAACACAGCGUGGCAAAGUGGCUGUGGCUAGACUGCCUCUCUGGAUUCCUCGUCACUCAGCAGGGCAUCUCUGAGAGAAAUGCC

Variants of: B1
Assay: self-cleavage, relative activity (ratio to wild type); higher = more cleavage; in vitro, sequencing; the parent is a self-cleaving ribozyme

Variant | self-cleavage
UACGUAGGUGGUUAUCCCCUGAUAGUGCUAGGGGGGCCUGGAAGUUUGGACUGGGCAGAGCUCAACACAGCGUGGCAUGGUGGCUGUGGCUAGACUGCCUCUCUGGAUUCCUCGUCACUCAGCAGGGCAUCUCUGAGAGAGAUGCC [U14A A31G A78U A79G A141G] | 1.22
UACGUAGGUGGUCUUCCCCUGAUAGUGCUAAGGGGGCCUGGAAGUUUGGACUGGGCAGAGCUCAACACAGCGUGGCAAAGUGGCUGUGGCUAGACUGCCCCUCUGGAUUCCUCGUCACUCAGCAGGGAAUCUCUGAGAGAAAUGCC [U13C U100C C128A] | 1.13
UACGUAGGUGGUCUUCCCCUGAUAGUGCUAAGGGGGCCUGGAAGUUUGGACUGGGCAGAGCUCAACACAGCGUGGCAAAGUGGCUGUGGCCAGACUGCCUCUCUGGAUUCCUCGUCACUCAGCAGGGCAUCUCUGAGAGUAAUGCC [U13C U91C A140U] | 1.38
UACGUAGGUGGUCUUCCCCUGAUAGUGCUAAGGGGGCCUGGAAGUUUGGACUGGGCAGAGCUCAACACAGCGUGGCAAAGUGGCUGUGGCUAGACUGCCUCUCUGGAUUCCUCGACACUCAGCAAGGCAUCUCUGAGAGGAAUGCC [U13C U115A G125A A140G] | 1.21
UACGUAGGUGGUGUUCCCUUGAUAGUGCUAAGGGGACCUGGAAGUUUGGACUGGGCAGAGCUCAACACAGCGUGGCAAAGUGGCUGUGGCUAGACUGCCUCUCUGGAGUCCUCGUCACUCAGCAGGGCAUCUCUGAGAGAAAUGCC [U13G C19U G36A U108G] | 0.65
UACGUAGGUGGUCUUCCCCUGAUAGUGCUAAGGGGGCCUGGAAGUUUGGACUGGGCAGAGCUCAACACAGCGUGGCAAAGUGGCUGUGGCUAGACUGCCCCUCUGGAUUCCUCGUCACUUAGCAGGGCAUCUCUGAGAGAAAUGCC [U13C U100C C120U] | 1.88
UACGUAGGUGGUCUUCCCCUGAUAGUGCUAAGGGGGCCUGGAAGUUUGGACUGGGCAGAGCUCAACACAGCGUGGCAAAGUGGCUGUGGCUAGACUGCCACACUGGAUUCCUCGUCACUCAGCAGGGCAUCUCUGAGAGAAAUGCC [U13C U100A U102A] | 0.7
UACGUAGGUGGUGUUCCCCUGAUAGUGCUAAGGGGGCCUGGAAGAUAGGACUGGGCAGAGCUCAACACAGCGUGGCAAAGUGGCUGUGGCUAGACUGCCUCUCUGGAUUCCUCGUCACUCAGCAGGGCAUCUCUGAGAGAAAUGCC [U13G U45A U47A] | 0.39
UACGUAGGUGGUGUUCCCCUGAUAGUGCUAAGGGGGCCUGGAAGUUUGGACUGGGCAGAGCUCAACACAGCGUGGCAAAGUGGCUGUGGCUAGACUGCCUCUCUGGAUUCCCCGUCACUCAGCAGGGCAUCUCUGAGAGAAGAGCC [U13G U112C A142G U143A] | 0
UACGUAGGUGGUCUUCCCCUGAUAGUGCUAAGGGGGCCUGGAAGUUUGGACUGGGCAGAGCUCAACACAGCGUGGCAAAGUGGCUGUGGCUAGACCGCCUCUCUGGAUUCCUCGUCGCUCAGCAGGGCAUCUCUGAGAGAAAUGCC [U13C U96C A117G] | 0
UACGUAGGUGGUGUUCCCCUGAUAGUGCUAAGGGGGCCUGGAAGUUUGGACUGGGCAGAGCUCAGCACAGCGUGGCAAAGUGGCUGUGGCUUGACUGCCUCUCUGGAUUCCUCGUCACUCAGCAGGUCAUCUCUGAGAGAAAUGCC [U13G A65G A92U G127U] | 0
UACGUAGGUGGUCUUCCCCUGAUAGUGCUAAGGGGGCCUGGAAGUUUGGACUGGGCAGAGCUCAACACAGCGUGGCAAAGUGGCUGUGGCUAGACUGCCUCUCUGGAUUCCACGUCACUCAGCAGGGCGUCUCUGUGGGAAAUGCC [U13C U112A A129G A136U A138G] | 2.12
UACGUAGGUGGUGUUCCCCUGAUAGUGCUAAGGGGGCCUGGAAGUUUGGACUGGGCAGAGCUCAACACAGCGUGGCAAAGUGGCUGUGGCUAGACUGCCUCUCAGGAUUCAUCGUCACUCAGCAGGGCAUCUCUGAGAGAAAUGCC [U13G U104A C111A] | 1.41
UACGUAGGUGGUCUUCCCCUGAUAGUGCUAAGGGGGCCUGGAAGUUUGGACUGGGCAGAGCUCAACACAGCGUGGCAAAGUGGCUGUGGCAAGACUGCCUCUCUGGAUUCCUCGUCACUCAGCAGGGCAUCUCUGAGAGAUAUGCC [U13C U91A A141U] | 0.58
UACGUAGGUGGUGUUCCCCUGAUAGUGCUAAGGGGGCCUGGAAGUUUGGCCUGGGCAGAGCUCAACACAGCGUGGCAAAGUGGCUGUGGCCAGACUGCCUCUCUGGAUUCCUCGUCUCUCAGCAGGGCAUCCCUGAGAGAAAUGCC [U13G A50C U91C A117U U132C] | 1.38
UACGUAGGUGGUCUUCCCCUGAUAGUGCUAAGGGGGCCUGGAAGUUUGGACUGGGCAGAGCUCAACACAGCGUGGCAAAGUGGCUGUGGCGAGACUGCAUCUCUGGAUUCCUCGUCACUCAGCAGGGCAUCUCUGAGAGAAAUGCC [U13C U91G C99A] | 0.08
UACGUAGGUGGUCUUCCCCUGAUAGUGCUAAGGGGGCCUGGAAGUUUGGACUGGGCAGAGCUCAACACAGCGUGGCAAAGUGGCUGUGGCUAGACCGCCUCUCUGGAUUCCUCGUCACUCAGCAGGGCAUCUCUGAGAGAGAUGCC [U13C U96C A141G] | 0.34
UACGUAGGUGGUCUUCCCCUGAUAGUGCUAAGGGGGCCUGGAAGUUUGGACUGGGCAGAGCUCAACACAGCGUGGCAAAGUGGCUGUGGCUAGACUGCCUCUCUGGAUUCCCCGUCACUCAGCUGGGCAUCUCAGAGAGAAAUGCC [U13C U112C A124U U134A] | 0.69
UACGUAGGUGGUCUUCCCCUGAUAGUGCUAAGGGGGCCUGGAAGUUUGGACUGGGCAGAGCUCAACACAGCGUGGCAAAGUGGCUGUGGCUAGACUGCCUCCCUGGAUUCCUCGGCACUCAGCAGGGCAUCCCUGAGAGAAAUGCC [U13C U102C U115G U132C] | 0.57
UACGUAGGUGGUCUUCCCCUGAUAGUGCUAAGGGGGCCUGGAAGUUUGGACUGGGCAGAGCUCAACACAGCGUGGCAAAGUGGCUGUGGCUAGACUGCCCCUCUGGAUUCCACAUCACUCAGCAGGGCAUCUCUGAGAGAAAUGCC [U13C U100C U112A G114A] | 2.35

Variant | self-cleavage
UACGUAGGUGGUGUUCCCCUGAUAGCGCUAAGGGGGCCUGGAAGUUUGGACUGGGCAGAGCUCAACACAGCGUGGCAAAGUGGCUGUGGCUAGACUGCCUCACUGGAUUCCUCGUCACUCAGCAGGGCAUCCCUGAGAGAAAUGCC [U13G U26C U102A U132C] | 0
UACGUAGGUGGUCUUCCCCUGAUAGUGCUAAGGGGGCCUGGAAGUUUGGACUGGGCAGAGCUCAACACAGCGUGGCAAAGUGGCUGUGGCUAGACUGCCUCUCUGGAUUCCUCGCCUCUCAGCAGGGCAUCUCUGAGAGAAAUGCC [U13C U115C A117U] | 1.67
UACGUAGGUGGUUAUCCCCUGUUAGUGCUAAGGGGGCCUGGAAGUUUGGACUGGGCAGAGCUCAACACAGCGUGGCAAAGUGGCUGUAGCUAGACUGCCUCUCUGGAUUCCUCGUCGCUCAGCAGGGCAUCUCUGAGAGAAAUGCC [U14A A22U G88A A117G] | 0.13
UACGUAGGUGGUUAUCCCCUGAUGGUGCUAAGGGGGCCUGGAAGUUUGGACUGGCCAGAGCCCAACACAGCGUGGCAGAGUGGCUGUGGCUAGACUGCCUCUCUGGAUUCCUCGUCACUCAGCAGGGCAUCUCUGAGAGAAAUGCC [U14A A24G G55C U62C A78G] | 0.14
UACGUAGGUGGUGUUCCCCUGAUAGUGCUAAGGGGGCCUGGAAGUGUGGACUGGGCAGAGCUCAACACAGCGUGGCAAAGUGGCAGUGGCUAGACUGCCUCCCUGGAUUCCUCGUCACUCAGCAGGGCAUCUCUGAGAGAGAUGCC [U13G U46G U85A U102C A141G] | 0
UACGUAGGUGGUGUUCCCCUGAUAGUGCUAAGGGGGCCUGGAAGUUUGGACUGGGCAGAGCUCAACACAGCGUGGCAAAGUGGCUGUGGCUAGACUGCCUCUCUGGAUUCCUCGUCACCCAGCAGGGCAUCUCUGAGAGAGAUGCC [U13G U119C A141G] | 1.36
UACGUAGGUGGUUAUCCCCUGUUAGUGCUAAGGGGGCCUGGAAGUUUGGACUGGGCAGAGCUCAACACAGCGUGGCAAAGUGGCUGUGGCUAGACUGCCACUCUGGAUUCCUCGUCACUCAGCAGGGCAUCUCUGAGAGAAAUGCC [U14A A22U U100A] | 0.92
UACGUAGGUGGUCUUCCCCUGAUAGUGCUAAGGGGGCCUGGAAGUUUGGACUGGGCAGAGCUCAACACAGCGUGGCAAAGUGGCUGUGGCUAGACUGCCUCUCUGGAUUCCUCGUCACUCAGCAGGGCAUCCCUGAGAGAGAUGCC [U13C U132C A141G] | 1.39
UACGUAGGUGGUCUUCCCCUGAUAGUGCUAAGGGGGCCUGGAAGUUUGGACUGGGCAGAGCUCAACACAGCGUGGCAAAGUGGCUGUGGCUAGACCGCCUCUCUGGAUUCCUCGUCACUCGGCAGGGCAUCUCUGAGAGAAAUGCC [U13C U96C A121G] | 0.29
UACGUAGGUGGUCUUCCCCUGAUAGUGCUAAGGGGGCCUGGAAGUUUGGACUGGGCAGAGCUCAACACAGCGUGGCAAAGUGGCUGUGGCUAGACAGCCUCUCUGGAUUCCUCGUCACUCAGCAGGGCGUCACUGAGGGAAAUGCC [U13C U96A A129G U132A A138G] | 0.2
UACGUAGGUGGUGUUCCCCUGAUAGUGCUAAGGGGGCCUGGAAGUUUGGACUGGGCAGAGCUCAACACAGCGUGGCGAAGUGGCUGUGGCUAGACUGCCUCUCUGGAUUCCUCGUCACUCAGCAGGGCAUUUCUGAGAGAAAUGCC [U13G A77G C131U] | 1.3
UACGUAGGUGGUGUUCCCCUGGUAGUGCUAAGGGGGCCUGGAAGUUUGGACUGGGCAGAGCUCAACACAGCGUGGCAAAGUGGCUGUGGCUAGACUGCCUCUCUGGAUACCUCGUCACUCAGCAGGGCAUCUCUGAGAGAAAUGCC [U13G A22G U109A] | 1.43
UACGUAGGUGGUUAUCCCCUGAUAGUGCUGAGGGGGCCAGGAAGUUUGGGCUGAGCAGAGCUCAACACGGCGUGGCAAAGUGGCUGUGGCUAGACUGCCUCUCUGGAUUCCUCGUCACUCAGCAGGGCAUCUCUGAGAGAAAUGCC [U14A A30G U39A A50G G54A A69G] | 0
UACGUAGGUGGUGUUCCCCUGAUAGUGCUAAGGGGGCCUGGAAGUUUGGACUGGGCAGAGCUCAACACAGCGUGGCGAAGUGGCUGUGGCUAGACUGCCUCUCUGGAUUCCUCGUCACUCAGCAGGGCAUCUCUGAGAGAAAGGCC [U13G A77G U143G] | 1.67
UACGUAGGUGGUGUUCCCCUGAUAGUGCUAAGGGGGCCUGGAAGUUUGGACUGGGCAGAGCUCAACACAGCGUGGCAAAGUGGCUGUGGCUAGACAGCCUCUCUGGAUUCCUCGUCGCUCAGCAGGGCAUCUCAGAGAGAAAUGCC [U13G U96A A117G U134A] | 0.19
UACGUAGGUGGUCUUCCCCUGAUAGUGCUAAGGGGGCCUGGAAGUUUGGACUGGGCAGAGCUCAACACAGCGUGGCAAAGUGGCUGUGGCUAGACUGCCUCUCCGGAUUCCUCGUCACUCAGCAGGGCAUCUCUGAGAGAAAUUCC [U13C U104C G144U] | 0.77
UACGUAGGUGGUCUUCCCCUGAUAGUGCUAAGGGGGCCUGGAAGUUUGGACUGGGCAGAGCUCAACACAGCGUGGCAAAGUGGCUGUGGCUAGACUGCCCCCCUGGAUUCCUCGUCACUCAGCAGGGCAUCUCUGAGAGGAAUGAC [U13C U100C U102C A140G C145A] | 2.83
UACGUAGGUGGUCUUCCCCUGAUAGUGCUAAGGGGGCCUGGAAGUUUGGACUGGGCAGAGCUCAACACAGCGUGGCAAAGUGGCUGUGGCUAGACUGCCUCUCUGGAUUCCCCGUCACUCAGCAGGGCGUCUCUGAGAGAAAUGCC [U13C U112C A129G] | 0.96
UACGUAGGUGGUCUUCCCCUGAUAGUGCUAAGGGGGCCUGGAAGUUUGGACUGGGCAGAGCUCAACACAGCGUGGCAAAGUGGCUGUGGCCAGACUGCCUCUCUGGGUUCCUCGUCACUCAGCAGGGCAUCUCUGAGAGAAAUGCC [U13C U91C A107G] | 0

Reference: the RNAGym collection of RNA variant scans (doi:10.7554/elife.90254)
